# Reference: the supplement of paper PMC8728848
# The other results are listed elsewhere or left out.
# How the values were obtained:
# Test in all cases: glycan array binding signal (z-score within array); higher = stronger binding
# Settings in all cases: glycan notation: IUPAC condensed, linker removed
# [1] = target: Fuc(a1-3)[Gal(b1-4)]Glc6S
# How it was run: (§1)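 Negative Z-scores can be read as non-binding. The Z-score is calculated within each array and then averaged across arrays of one protein sequence at different concentrations or buffers and across linkers. Arrays, 3228 in all, were curated from the Consortium for Functional Glycomics database and kept only where the protein sequence was available.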
# [2] = target: Fuc(a1-3)[Gal(b1-4)]GlcNAc
# How it was run: as §1
# [3] = target: Fuc(a1-3)[Gal(b1-4)]GlcNAc(b1-2)Man(a1-3)[Fuc(a1-3)[Gal(b1-4)]GlcNAc(b1-2)Man(a1-6)]Man(b1-4)GlcNAc(b1-4)GlcNAc
# How it was run: as §1
# [4] = target: Fuc(a1-3)[Gal(b1-4)]GlcNAc(b1-2)Man(a1-3)[Fuc(a1-3)[Gal(b1-4)]GlcNAc(b1-2)Man(a1-6)]Man(b1-4)GlcNAc(b1-4)[Fuc(a1-6)]GlcNAc
# How it was run: as §1
# [5] = target: Fuc(a1-3)[Gal(b1-4)]GlcNAc(b1-2)Man(a1-6)[Gal(b1-4)GlcNAc(b1-2)Man(a1-3)]Man(b1-4)GlcNAc(b1-4)GlcNAc
# How it was run: as §1
# [6] = target: Fuc(a1-3)[Gal(b1-4)]GlcNAc(b1-3)Gal(b1-3)[Fuc(a1-4)]GlcNAc
# How it was run: as §1
# [7] = target: Fuc(a1-3)[Gal(b1-4)]GlcNAc(b1-3)GalNAc
# How it was run: as §1
# [8] = target: Fuc(a1-3)[Gal(b1-4)]GlcNAc(b1-4)Gal(b1-4)[Fuc(a1-3)]GlcNAc
# How it was run: as §1
# [9] = target: Fuc(a1-3)[Gal(b1-4)]GlcNAc(b1-4)Gal(b1-4)[Fuc(a1-3)]GlcNAc(b1-4)Gal(b1-4)[Fuc(a1-3)]GlcNAc
# How it was run: as §1
# [10] = target: Fuc(a1-3)[Gal(b1-4)]GlcNAc(b1-6)GalNAc
# How it was run: as §1
# [11] = target: Fuc(a1-3)[Gal(b1-4)]GlcNAc(b1-6)[Gal(b1-3)GlcNAc(b1-3)]Gal(b1-4)Glc
# How it was run: as §1
# [12] = target: Fuc(a1-3)[Gal(b1-4)]GlcNAc(b1-6)[Neu5Ac(a2-3)Gal(b1-3)]GalNAc
# How it was run: as §1
# [13] = target: Fuc(a1-3)[Gal(b1-4)]GlcNAc6S
# How it was run: as §1
# [14] = target: Fuc(a1-3)[Gal3S(b1-4)]Glc6S
# How it was run: as §1
# [15] = target: Fuc(a1-3)[Gal3S(b1-4)]GlcNAc
# How it was run: as §1
# [16] = target: Fuc(a1-3)[Gal3S(b1-4)]GlcNAc6S
# How it was run: as §1
# [17] = target: Fuc(a1-3)[GalNAc(b1-4)]GlcNAc
# How it was run: as §1
# [18] = target: Fuc(a1-3)[Neu5Ac(a2-3)]Gal(b1-4)GlcNAc(b1-3)GalNAc
# How it was run: as §1
# Fuc(a1-4)GlcNAc = target: Fuc(a1-4)GlcNAc
# How it was run: as §1
# Fuc(b1-3)GlcNAc = target: Fuc(b1-3)GlcNAc
# How it was run: as §1
# Gal(a1-2)Gal = target: Gal(a1-2)Gal
# How it was run: as §1
# Gal(a1-3)Gal = target: Gal(a1-3)Gal
# How it was run: as §1
# Gal(a1-3)Gal(b1-3)GlcNAc = target: Gal(a1-3)Gal(b1-3)GlcNAc
# How it was run: as §1
# [19] = target: Gal(a1-3)Gal(b1-3)GlcNAc(b1-2)Man(a1-3)[Gal(a1-3)Gal(b1-3)GlcNAc(b1-2)Man(a1-6)]Man(b1-4)GlcNAc(b1-4)GlcNAc
# How it was run: as §1
# [20] = target: Gal(a1-3)Gal(b1-3)GlcNAc(b1-3)GalNAc
# How it was run: as §1
# [21] = target: Gal(a1-3)Gal(b1-3)[Fuc(a1-4)]GlcNAc(b1-2)Man(a1-3)[Gal(a1-3)Gal(b1-3)[Fuc(a1-4)]GlcNAc(b1-2)Man(a1-6)]Man(b1-4)GlcNAc(b1-4)GlcNAc
# How it was run: as §1
# Gal(a1-3)Gal(b1-4)Glc = target: Gal(a1-3)Gal(b1-4)Glc
# How it was run: as §1
# Gal(a1-3)Gal(b1-4)GlcNAc = target: Gal(a1-3)Gal(b1-4)GlcNAc
# How it was run: as §1
# [22] = target: Gal(a1-3)Gal(b1-4)GlcNAc(b1-3)GalNAc
# How it was run: as §1
# [23] = target: Gal(a1-3)Gal(b1-4)[Fuc(a1-3)]GlcNAc
# How it was run: as §1
# [24] = target: Gal(a1-3)Gal(b1-4)[Fuc(a1-3)]GlcNAc(b1-2)Man(a1-3)[Gal(a1-3)Gal(b1-4)[Fuc(a1-3)]GlcNAc(b1-2)Man(a1-6)]Man(b1-4)GlcNAc(b1-4)GlcNAc
# How it was run: as §1
# Gal(a1-3)GalNAc = target: Gal(a1-3)GalNAc
# How it was run: as §1
# [25] = target: Gal(a1-3)[Gal(a1-4)]Gal(b1-4)GlcNAc
# How it was run: as §1
# [26] = target: Gal(a1-4)Gal(b1-3)GlcNAc(b1-2)Man(a1-3)[Gal(a1-4)Gal(b1-3)GlcNAc(b1-2)Man(a1-6)]Man(b1-4)GlcNAc(b1-4)GlcNAc
# How it was run: as §1
# Gal(a1-4)Gal(b1-4)Glc = target: Gal(a1-4)Gal(b1-4)Glc
# How it was run: as §1
# Gal(a1-4)Gal(b1-4)GlcNAc = target: Gal(a1-4)Gal(b1-4)GlcNAc
# How it was run: as §1
# [27] = target: Gal(a1-4)Gal(b1-4)GlcNAc(b1-2)Man(a1-3)[Gal(a1-4)Gal(b1-4)GlcNAc(b1-2)Man(a1-6)]Man(b1-4)GlcNAc(b1-4)GlcNAc
# How it was run: as §1
# [28] = target: Gal(a1-4)Gal(b1-4)GlcNAc(b1-3)Gal(b1-4)Glc
# How it was run: as §1
# Gal(a1-4)GlcNAc = target: Gal(a1-4)GlcNAc
# How it was run: as §1
# Gal(a1-6)Glc = target: Gal(a1-6)Glc
# How it was run: as §1
# Gal(b1-2)Gal = target: Gal(b1-2)Gal
# How it was run: as §1
# Gal(b1-3)Gal = target: Gal(b1-3)Gal
# How it was run: as §1
# Gal(b1-3)Gal(b1-4)GlcNAc = target: Gal(b1-3)Gal(b1-4)GlcNAc
# How it was run: as §1
# [29] = target: Gal(b1-3)Gal(b1-4)GlcNAc(b1-2)Man(a1-3)[Gal(b1-3)Gal(b1-4)GlcNAc(b1-2)Man(a1-6)]Man(b1-4)GlcNAc(b1-4)GlcNAc
# How it was run: as §1
# Gal(b1-3)GalNAc = target: Gal(b1-3)GalNAc
# How it was run: as §1
binder,measurement,setting,value
"BC2L-A (Burkholderia cenocepacia), Q1BKJ8_BURCA (protein) ADSQTSSNRAGEFSIPPNTDFRAIFFANAAEQQHIKLFIGDSQEPAAYHKLTTRDGPREATLNSGNGKIRFEVSVNGKPSATDARLAPINGKKSDGSPFTVNFGIVVSEDGHDSDYNDGIVVLQWPIG",glycan array binding signal (z-score),[1],-0.234
same,glycan array binding signal (z-score),[2],-0.285
same,glycan array binding signal (z-score),[3],-0.263
same,glycan array binding signal (z-score),[4],-0.217
same,glycan array binding signal (z-score),[5],-0.36
same,glycan array binding signal (z-score),[6],0.01
same,glycan array binding signal (z-score),[7],-0.218
same,glycan array binding signal (z-score),[8],-0.106
same,glycan array binding signal (z-score),[9],-0.276
same,glycan array binding signal (z-score),[10],-0.219
same,glycan array binding signal (z-score),[11],-0.214
same,glycan array binding signal (z-score),[12],-0.209
same,glycan array binding signal (z-score),[13],-0.298
same,glycan array binding signal (z-score),[14],0.898
same,glycan array binding signal (z-score),[15],-0.317
same,glycan array binding signal (z-score),[16],-0.295
same,glycan array binding signal (z-score),[17],-0.263
same,glycan array binding signal (z-score),[18],-0.178
same,glycan array binding signal (z-score),Fuc(a1-4)GlcNAc,0.092
same,glycan array binding signal (z-score),Fuc(b1-3)GlcNAc,-0.287
same,glycan array binding signal (z-score),Gal(a1-2)Gal,-0.29
same,glycan array binding signal (z-score),Gal(a1-3)Gal,-0.175
same,glycan array binding signal (z-score),Gal(a1-3)Gal(b1-3)GlcNAc,-0.284
same,glycan array binding signal (z-score),[19],-0.186
same,glycan array binding signal (z-score),[20],-0.219
same,glycan array binding signal (z-score),[21],0.042
same,glycan array binding signal (z-score),Gal(a1-3)Gal(b1-4)Glc,-0.241
same,glycan array binding signal (z-score),Gal(a1-3)Gal(b1-4)GlcNAc,-0.291
same,glycan array binding signal (z-score),[22],-0.221
same,glycan array binding signal (z-score),[23],-0.292
same,glycan array binding signal (z-score),[24],-0.262
same,glycan array binding signal (z-score),Gal(a1-3)GalNAc,-0.296
same,glycan array binding signal (z-score),[25],-0.291
same,glycan array binding signal (z-score),[26],0.533
same,glycan array binding signal (z-score),Gal(a1-4)Gal(b1-4)Glc,-0.291
same,glycan array binding signal (z-score),Gal(a1-4)Gal(b1-4)GlcNAc,-0.293
same,glycan array binding signal (z-score),[27],-0.217
same,glycan array binding signal (z-score),[28],-0.296
same,glycan array binding signal (z-score),Gal(a1-4)GlcNAc,-0.291
same,glycan array binding signal (z-score),Gal(a1-6)Glc,-0.293
same,glycan array binding signal (z-score),Gal(b1-2)Gal,-0.288
same,glycan array binding signal (z-score),Gal(b1-3)Gal,-0.293
same,glycan array binding signal (z-score),Gal(b1-3)Gal(b1-4)GlcNAc,-0.299
same,glycan array binding signal (z-score),[29],-0.212
same,glycan array binding signal (z-score),Gal(b1-3)GalNAc,-0.294
